Test results reported in the supplement of paper PMC4967469.

How the values were obtained:
Test in all cases: Viability of human cancer cell lines after 72 h of drug (GDSC screen)
[1] = compound: COc1cc(C(=O)NC2CCN(C)CC2)ccc1Nc1ncc2c(n1)N(C1CCCC1)C(C)CC(=O)N2C [NPK76-II-72-1]; settings: top dose 10.24 µM; top dose inferred
Protocol: (§1)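 Human cancer cell lines in 384-well plates, medium with 10% serum, drug for 72 h over a 256-fold dose range (nine 2-fold or five 4-fold steps up to the top dose). Adherent lines were fixed and stained with the nucleic acid dye Syto60, suspension lines read with resazurin; signal relative to control wells, capped at 0 and 100%. One two-parameter sigmoid per drug and line, fitted in a mixed model over all curves with the slope shared within a line.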

[2] = compound: NC(=O)Nc1cc(-c2cccc(F)c2)sc1C(=O)N[C@H]1CCCNC1 [AZD7762]; settings: top dose 2 µM
Protocol: as §1

[3] = compound: Oc1nc(-c2ccc(C(F)(F)F)cc2)nc2c1CSCC2 [XAV 939]; settings: top dose 5 µM; top dose inferred
Protocol: as §1

[4] = compound: COc1ccc(C(=O)CC2(O)C(=O)Nc3c(Cl)ccc(Cl)c32)cc1 [YK 4-279]; settings: top dose 10 µM
Protocol: as §1

[5] = compound: Cc1ccc2nc(NCCN)c3ncc(C)n3c2c1 [BMS-345541]; settings: top dose 16 µM
Protocol: as §1

Cell Line	AUC [1]	IC50 [1]	AUC [2]	IC50 [2]	AUC [3]	IC50 [3]	AUC [4]	IC50 [4]	AUC [5]	IC50 [5]
CADO-ES1 (Ewing sarcoma, suspension)	0.894	> 10.2 µM	0.95	> 2 µM	0.985	> 5 µM	0.813	5.54 µM	0.725	4.43 µM
COR-L321 (lung, suspension)	0.779	4.19 µM	0.97	> 2 µM	0.953	> 5 µM	0.884	> 10 µM	0.856	12.9 µM
DIFI (large intestine, adherent)	–	–	0.69	0.436 µM	0.986	> 5 µM	0.774	4.08 µM	–	–
EMC-BAC-1 (lung adenocarcinoma, adherent)	0.748	3.69 µM	0.595	0.236 µM	0.913	> 5 µM	0.603	1.25 µM	0.804	9.36 µM
EMC-BAC-2 (lung adenocarcinoma, adherent)	0.941	> 10.2 µM	0.608	0.261 µM	0.796	2.84 µM	0.667	2 µM	0.856	> 16 µM
ESO26 (oesophagus, adherent)	0.641	1.53 µM	0.725	0.522 µM	0.988	> 5 µM	0.806	4.74 µM	0.716	3.9 µM
ESO51 (oesophagus, semi-adherent)	0.944	> 10.2 µM	0.526	0.151 µM	0.973	> 5 µM	0.916	> 10 µM	0.817	14.1 µM
EW-22 (Ewing sarcoma, adherent)	–	–	0.73	0.547 µM	0.987	> 5 µM	0.647	1.57 µM	–	–
HCC-366 (non-small cell lung carcinoma, adherent)	–	–	0.779	0.851 µM	0.981	> 5 µM	0.76	3.65 µM	–	–
IGROV-1 (ovary, adherent)	–	–	0.577	0.225 µM	0.926	> 5 µM	0.824	> 10 µM	–	–
JEKO-1 (B-cell lymphoma, suspension)	–	–	0.298	0.0347 µM	0.983	> 5 µM	0.567	0.945 µM	–	–
JHOS-3 (ovary, adherent)	0.954	> 10.2 µM	0.78	1.07 µM	0.912	> 5 µM	0.894	> 10 µM	0.915	> 16 µM
KARPAS-1106P (B-cell lymphoma, suspension)	–	–	0.513	0.134 µM	0.993	> 5 µM	0.86	6.12 µM	–	–
KMS-11 (myeloma, suspension)	0.879	7.92 µM	0.568	0.186 µM	0.987	> 5 µM	0.629	1.34 µM	0.841	8.84 µM
KNS-62 (lung squamous cell carcinoma, adherent)	–	–	0.709	0.645 µM	0.854	> 5 µM	0.775	5.92 µM	–	–
KYAE-1 (oesophagus, suspension)	0.762	4.04 µM	0.776	0.888 µM	0.978	> 5 µM	0.974	> 10 µM	0.87	> 16 µM
MEL-HO (melanoma, adherent)	–	–	0.785	0.864 µM	0.98	> 5 µM	0.72	2.65 µM	–	–
MHH-CALL-2 (B-cell leukaemia, suspension)	–	–	0.509	0.131 µM	0.997	> 5 µM	0.91	7.34 µM	–	–
MKN7 (stomach, adherent)	–	–	0.816	1.63 µM	0.976	> 5 µM	0.96	> 10 µM	–	–
MOLM-16 (acute myeloid leukaemia, suspension)	–	–	0.537	0.155 µM	0.966	> 5 µM	0.474	0.537 µM	–	–

Cell Line	AUC [1]	IC50 [1]	AUC [2]	IC50 [2]	AUC [3]	IC50 [3]	AUC [4]	IC50 [4]	AUC [5]	IC50 [5]
MOLT-13 (T-cell lymphoblastic leukaemia, suspension)	0.254	0.141 µM	0.718	0.472 µM	0.984	> 5 µM	0.625	1.32 µM	0.736	4.26 µM
MOLT-16 (T-cell lymphoblastic leukaemia, suspension)	–	–	0.527	0.146 µM	0.974	> 5 µM	0.482	0.565 µM	–	–
NCC010 (kidney, adherent)	–	–	0.646	0.327 µM	0.892	> 5 µM	0.739	3.18 µM	–	–
NCC021 (kidney, adherent)	0.917	> 10.2 µM	0.744	0.713 µM	0.947	> 5 µM	0.779	4.8 µM	0.957	> 16 µM
NCI-H146 (small cell lung carcinoma, suspension)	–	–	0.94	> 2 µM	0.991	> 5 µM	0.984	> 10 µM	–	–
NCI-H508 (large intestine, semi-adherent)	–	–	0.892	> 2 µM	0.971	> 5 µM	0.957	> 10 µM	–	–
NCI-H835 (lung carcinoid, suspension)	–	–	0.93	> 2 µM	0.968	> 5 µM	0.926	> 10 µM	–	–
NCI-H929 (myeloma, suspension)	–	–	0.737	0.522 µM	0.979	> 5 µM	0.899	9.43 µM	–	–
NCI-H1105 (small cell lung carcinoma, suspension)	–	–	0.938	> 2 µM	0.988	> 5 µM	0.877	7.05 µM	–	–
NCI-H1341 (small cell lung carcinoma, suspension)	–	–	0.632	0.273 µM	0.982	> 5 µM	0.777	3.43 µM	–	–
OACM5-1 (oesophagus, semi-adherent)	0.52	0.733 µM	0.952	> 2 µM	0.983	> 5 µM	0.961	> 10 µM	0.737	5.25 µM
OACp4C (oesophagus, adherent)	0.564	0.995 µM	0.5	0.125 µM	0.941	> 5 µM	0.828	7.93 µM	0.83	12.9 µM
OC-314 (ovary, adherent)	0.648	1.54 µM	0.594	0.217 µM	0.983	> 5 µM	0.622	1.29 µM	0.893	14.3 µM
OV-17R (ovary, adherent)	0.891	> 10.2 µM	0.649	0.382 µM	0.848	> 5 µM	0.813	8.38 µM	0.893	> 16 µM
OV-56 (ovary, adherent)	0.98	> 10.2 µM	0.698	0.438 µM	0.984	> 5 µM	0.772	3.7 µM	0.884	> 16 µM
OVCA420 (ovary, adherent)	0.945	> 10.2 µM	0.773	1.05 µM	0.9	> 5 µM	0.91	> 10 µM	0.977	> 16 µM
OVCA433 (ovary, adherent)	0.968	> 10.2 µM	0.636	0.31 µM	0.756	1.89 µM	0.447	0.442 µM	0.937	> 16 µM
OVK-18 (ovary, adherent)	0.968	> 10.2 µM	0.588	0.224 µM	0.979	> 5 µM	0.771	4.25 µM	0.877	> 16 µM
PEO1 (ovary, adherent)	0.833	7 µM	0.505	0.129 µM	0.965	> 5 µM	0.75	3.38 µM	0.906	> 16 µM
PWR-1E (prostate, adherent)	–	–	0.494	0.121 µM	0.975	> 5 µM	0.752	3.3 µM	–	–

Cell Line	AUC [1]	IC50 [1]	AUC [2]	IC50 [2]	AUC [3]	IC50 [3]	AUC [4]	IC50 [4]	AUC [5]	IC50 [5]
QGP-1 (pancreas, adherent)	0.853	> 10.2 µM	0.962	> 2 µM	0.976	> 5 µM	0.856	> 10 µM	0.907	> 16 µM
RCC-AB (kidney, adherent)	0.926	> 10.2 µM	0.693	0.518 µM	0.933	> 5 µM	0.801	6.69 µM	0.846	> 16 µM
RCC-JW (kidney, adherent)	0.967	> 10.2 µM	0.753	0.685 µM	0.902	> 5 µM	0.653	1.68 µM	0.884	> 16 µM
RCH-ACV (B-cell leukaemia, suspension)	–	–	0.381	0.0627 µM	0.99	> 5 µM	0.686	1.86 µM	–	–
RH-18 (rhabdomyosarcoma, adherent)	–	–	0.844	1.76 µM	0.953	> 5 µM	0.954	> 10 µM	0.894	> 16 µM
SK-GT-2 (stomach, adherent)	–	–	0.68	0.41 µM	0.934	> 5 µM	0.695	2.28 µM	–	–
SK-GT-4 (oesophagus, adherent)	0.921	> 10.2 µM	0.535	0.16 µM	0.957	> 5 µM	0.732	3.42 µM	0.863	> 16 µM
SK-MEL-5 (melanoma, adherent)	0.983	> 10.2 µM	0.698	0.513 µM	0.909	> 5 µM	0.739	3.57 µM	0.955	> 16 µM
SK-MEL-31 (melanoma, adherent)	–	–	0.679	0.457 µM	0.958	> 5 µM	0.926	> 10 µM	–	–
SK-MG-1 (glioma, adherent)	0.928	> 10.2 µM	0.617	0.263 µM	0.986	> 5 µM	0.76	3.55 µM	0.922	> 16 µM
SNU-61 (large intestine, adherent)	0.89	> 10.2 µM	0.883	> 2 µM	0.971	> 5 µM	0.98	> 10 µM	0.884	> 16 µM
SNU-81 (large intestine, adherent)	0.981	> 10.2 µM	0.786	1.2 µM	0.98	> 5 µM	0.859	> 10 µM	0.879	> 16 µM
SNU-407 (large intestine, adherent)	0.782	5.06 µM	0.744	0.715 µM	0.858	> 5 µM	0.698	2.5 µM	0.867	> 16 µM
SNU-C5 (large intestine, adherent)	0.949	> 10.2 µM	0.503	0.127 µM	0.944	> 5 µM	0.695	2.34 µM	0.928	> 16 µM
SUP-B8 (B-cell leukaemia, suspension)	–	–	0.671	0.373 µM	0.968	> 5 µM	0.893	> 10 µM	–	–
TC-YIK (cervix, suspension)	–	–	0.643	0.292 µM	0.924	> 5 µM	0.661	1.63 µM	–	–
U-266 (myeloma, semi-adherent)	–	–	0.757	0.922 µM	0.957	> 5 µM	0.888	> 10 µM	–	–
UWB1.289 (ovary, adherent)	0.953	> 10.2 µM	0.761	1.08 µM	0.95	> 5 µM	0.738	4.3 µM	0.948	> 16 µM
VMRC-LCD (lung adenocarcinoma, adherent)	–	–	0.717	0.455 µM	0.98	> 5 µM	0.715	2.24 µM	–	–

A lower IC50 marks a more sensitive line; a limit (>, <) means that the fit lies beyond the doses tested. AUC, from the same fit, is the share of area under the viability curve across the 256-fold dose range; values near 1 show little effect. For part of these data: An inferred top dose was derived from the fitted curves, not read from the paper.
